From the supplement of paper PMC10369915
This is one part of the list. No stated cut-off is given here; in the data, active = 3.2 or more and inactive = the rest. Most of these values are background signal.

Tests used:
Test in all cases: enrichment score (SH2-bound / input frequency) (ratio); bacterial display of known human phosphotyrosine sites (pTyr-Var adds point mutants) read by sequencing; higher = stronger binding; tyrosines were phosphorylated by kinases first
Conditions in all cases: peptide library: pTyr-Var
[1] = biological target: SHP2 C-SH2 domain E139D
[2] = biological target: SHP2 C-SH2 domain wild-type
[3] = biological target: SHP2 N-SH2 domain L43F
[4] = biological target: SHP2 N-SH2 domain T42A
[5] = biological target: SHP2 N-SH2 domain T52S
[6] = biological target: SHP2 N-SH2 domain wild-type

Measured: enrichment score
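Further: displayed peptides selected on beads carrying the immobilized SH2 domain, with library peptides lacking any tyrosine serving as negative controls.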

B1: CDC5L_Y459_YF (peptide)
chain: DGMADYSDPSF
inactive: [1] 0.497 | [2] 0.533 | [3] 0.61 | [4] 0.461 | [5] 0.452 | [6] 0.581

B2: CDH23_Y1672 (peptide)
chain: NGTVTYAIVAG
inactive: [1] 1.9 | [2] 3.17 | [3] 1.02 | [4] 3.14 | [5] 1.14 | [6] 0.748

B3: CDC14C_Y132 (peptide)
chain: FGDTPYIPFRD
inactive: [1] 0.935 | [2] 0.77 | [3] 0.935 | [4] 0.786 | [5] 0.815 | [6] 0.871

B4: CDH23_Y2949 (peptide)
chain: AIIGIYILRDD
inactive: [2] 3.06 | [3] 2.71 | [4] 2.51 | [5] 2.43 | [6] 2.87
active: [1] 3.39

B5: CEACAM7_Y236 (peptide)
chain: TLNVRYESVQA
active: [4] 5.53
inactive: [1] 0.975 | [2] 1.06 | [3] 1.41 | [5] 1.76 | [6] 1.07

B6: CDH23_Y1672_T1671S (peptide)
chain: NGTVSYAIVAG
inactive: [3] 1.71 | [5] 1.56 | [6] 0.679
active: [1] 4.1 | [2] 6.24 | [4] 4.96

B7: CDC42BPB_Y1638 (peptide)
chain: SRNKPYISWPS
inactive: [1] 2.21 | [2] 1.81 | [3] 1.91 | [4] 1.69 | [5] 2.02 | [6] 1.83

B8: CDH5_Y82_N79T (peptide)
chain: RKTAKYLLKGE
inactive: [1] 0.36 | [2] 0.367 | [3] 0.567 | [4] 0.458 | [5] 0.566 | [6] 0.46

B9: CDKL5_Y177_R178Q (peptide)
chain: VATRWYQSPEL
inactive: [1] 1.12 | [2] 0.667 | [3] 0.892 | [4] 0.753 | [5] 0.753 | [6] 0.936

B10: CDH5_Y82 (peptide)
chain: RKNAKYLLKGE
inactive: [1] 0.778 | [2] 0.388 | [3] 0.265 | [4] 0.495 | [5] 0.562 | [6] 0.156

B11: CDH1_Y876 (peptide)
chain: KLADMYGGGED
inactive: [1] 0.608 | [2] 0.507 | [3] 0.461 | [4] 0.603 | [5] 0.666 | [6] 0.488

B12: CDK2_Y19_V18L (peptide)
chain: TYGVLYKARNK
inactive: [1] 0.355 | [2] 0.365 | [3] 0.375 | [4] 0.432 | [5] 0.408 | [6] 0.375

B13: CDKN2A_Y44 (peptide)
chain: NAPNSYGRRPI
inactive: [1] 0.248 | [2] 0.283 | [3] 0.276 | [4] 0.216 | [5] 0.301 | [6] 0.241

B14: CDK2_Y15_V18L_YF (peptide)
chain: IGEGTYGVLFK
inactive: [1] 1.07 | [2] 1.18 | [3] 1.05 | [4] 0.963 | [5] 0.768 | [6] 1.3

B15: CDK11B_Y453_YF (peptide)
chain: TFGVVYRAKDK
inactive: [1] 0.585 | [2] 0.45 | [3] 0.579 | [4] 0.469 | [5] 0.495 | [6] 0.477

B16: CDKL5_Y177_P180L (peptide)
chain: VATRWYRSLEL
inactive: [1] 0.611 | [2] 0.589 | [3] 0.542 | [4] 0.555 | [5] 0.567 | [6] 0.479

B17: CDKN1B_Y74_P69L (peptide)
chain: LLEGKYEWQEV
inactive: [1] 1.19 | [2] 1.16 | [3] 1.6 | [4] 1.55 | [5] 1.47 | [6] 1.46

B18: CEACAM7_Y236_Y236H (peptide)
chain: TLNVRHESVQA
inactive: [1] 0.693 | [2] 0.765 | [3] 0.652 | [4] 0.674 | [5] 0.726 | [6] 0.726

B19: CDKL5_Y171_R175S_YF (peptide)
chain: ANFTEYVATSW
inactive: [1] 0.938 | [2] 1.13 | [3] 1.05 | [4] 1.04 | [5] 1 | [6] 1.02
